From publication PMC8315052
No constants are given. Whether binding was seen depends on the method and setting. Binding seen in cells or lysates may run through a third protein. Some entries that bind do so weakly or less than the wild type. For some of these results: Tags and fused reporters may be left off the sequences shown.

Amino acid sequences for entries named in this document (tags omitted). A change or cut given only in a name is not applied to a line headed by its entry. Residues count along the entry.
UniProt P06733: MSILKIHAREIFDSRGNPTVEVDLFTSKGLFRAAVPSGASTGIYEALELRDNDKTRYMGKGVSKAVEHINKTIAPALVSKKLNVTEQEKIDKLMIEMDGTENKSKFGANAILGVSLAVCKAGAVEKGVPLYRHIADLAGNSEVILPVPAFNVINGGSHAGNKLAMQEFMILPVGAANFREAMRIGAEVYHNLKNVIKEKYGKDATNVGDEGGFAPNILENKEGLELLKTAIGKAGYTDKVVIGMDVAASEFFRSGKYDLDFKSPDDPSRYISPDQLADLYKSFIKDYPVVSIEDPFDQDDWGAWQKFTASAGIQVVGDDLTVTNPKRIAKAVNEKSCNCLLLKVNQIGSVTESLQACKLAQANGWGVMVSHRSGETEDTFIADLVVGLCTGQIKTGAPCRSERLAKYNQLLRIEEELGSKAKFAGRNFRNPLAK
Myc-ENO1-1-138: residues 1-138 of P06733
Myc-ENO1-140-434: residues 140-434 of P06733
UniProt P31749: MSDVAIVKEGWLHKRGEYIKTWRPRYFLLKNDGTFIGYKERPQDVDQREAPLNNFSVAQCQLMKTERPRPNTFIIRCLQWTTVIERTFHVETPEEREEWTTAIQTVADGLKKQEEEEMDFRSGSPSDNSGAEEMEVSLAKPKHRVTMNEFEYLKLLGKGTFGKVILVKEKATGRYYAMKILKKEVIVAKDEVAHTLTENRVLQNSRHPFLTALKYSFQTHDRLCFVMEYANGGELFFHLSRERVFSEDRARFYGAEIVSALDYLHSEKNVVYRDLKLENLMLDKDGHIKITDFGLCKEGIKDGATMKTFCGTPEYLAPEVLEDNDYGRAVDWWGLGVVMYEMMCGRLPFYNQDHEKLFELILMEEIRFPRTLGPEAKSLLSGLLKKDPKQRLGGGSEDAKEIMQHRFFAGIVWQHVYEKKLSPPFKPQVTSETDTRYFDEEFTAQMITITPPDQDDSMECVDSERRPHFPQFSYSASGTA
UniProt Q969H0: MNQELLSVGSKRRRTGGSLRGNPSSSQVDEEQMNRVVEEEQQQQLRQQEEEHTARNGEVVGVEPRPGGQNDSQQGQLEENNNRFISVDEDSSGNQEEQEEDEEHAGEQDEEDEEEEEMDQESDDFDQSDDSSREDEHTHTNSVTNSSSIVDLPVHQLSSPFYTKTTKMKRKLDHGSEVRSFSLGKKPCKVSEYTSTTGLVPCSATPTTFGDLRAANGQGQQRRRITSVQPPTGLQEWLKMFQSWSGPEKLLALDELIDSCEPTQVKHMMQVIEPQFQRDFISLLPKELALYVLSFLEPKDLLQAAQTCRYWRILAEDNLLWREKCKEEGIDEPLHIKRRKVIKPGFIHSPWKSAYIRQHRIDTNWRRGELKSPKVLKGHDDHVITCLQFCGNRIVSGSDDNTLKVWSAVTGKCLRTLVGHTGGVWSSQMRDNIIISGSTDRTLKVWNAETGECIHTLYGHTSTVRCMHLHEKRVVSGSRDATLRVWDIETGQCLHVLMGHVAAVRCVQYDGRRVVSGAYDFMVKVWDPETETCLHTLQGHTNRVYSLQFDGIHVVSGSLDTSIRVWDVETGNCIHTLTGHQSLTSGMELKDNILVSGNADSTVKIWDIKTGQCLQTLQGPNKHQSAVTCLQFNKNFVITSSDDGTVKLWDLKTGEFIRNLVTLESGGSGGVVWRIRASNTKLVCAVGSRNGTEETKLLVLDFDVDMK

What was measured:
[1] = molecular target: T1, coiled-coil domain containing 65 (CCDC65), endogenous (human (endogenous in AGS / gastric cancer cells)) (UniProt Q8IXS2); assay: co-IP; endogenous proteins, cell lysate (GC cells); 1 mg protein with 5 ug primary antibody or IgG overnight at 4 °C; also with CCDC65 overexpression (Figure 6I) or si-CCDC65 (Figure 7E)
T1 sequence: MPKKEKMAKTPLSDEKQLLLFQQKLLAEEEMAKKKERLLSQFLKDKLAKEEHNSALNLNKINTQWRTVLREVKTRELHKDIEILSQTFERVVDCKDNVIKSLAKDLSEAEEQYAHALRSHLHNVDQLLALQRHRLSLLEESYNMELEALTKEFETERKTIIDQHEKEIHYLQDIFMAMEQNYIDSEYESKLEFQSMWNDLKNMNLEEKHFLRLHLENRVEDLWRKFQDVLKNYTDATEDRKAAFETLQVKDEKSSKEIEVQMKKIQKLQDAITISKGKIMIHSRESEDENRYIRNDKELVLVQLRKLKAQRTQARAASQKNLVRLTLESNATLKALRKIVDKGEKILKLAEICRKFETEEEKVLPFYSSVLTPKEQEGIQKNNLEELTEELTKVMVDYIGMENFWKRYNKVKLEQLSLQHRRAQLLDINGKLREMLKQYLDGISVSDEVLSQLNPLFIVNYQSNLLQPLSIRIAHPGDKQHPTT

[2] = molecular target: Myc-ENO1, full length (human) (UniProt P06733); assay: co-IP; exogenous: tagged proteins transfected (HEK293T in Figures 5E, 5F, 7D); IP with anti-Flag or anti-Myc, Western blot
[3] = molecular target: T2, Flag-CCDC65-1-130 (human) (UniProt Q8IXS2); assay: as above
T2 sequence: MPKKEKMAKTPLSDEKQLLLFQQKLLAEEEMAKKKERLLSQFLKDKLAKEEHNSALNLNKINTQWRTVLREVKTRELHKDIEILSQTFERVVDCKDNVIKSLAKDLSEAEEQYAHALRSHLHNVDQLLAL

[4] = molecular target: T3, wild type (WT) CCDC65, exogenous full length (human) (UniProt Q8IXS2); assay: as above
T3 sequence: T1 sequence

[5] = molecular target: T4, Flag-CCDC65-130-484 (human) (UniProt Q8IXS2); assay: as above
T4 sequence: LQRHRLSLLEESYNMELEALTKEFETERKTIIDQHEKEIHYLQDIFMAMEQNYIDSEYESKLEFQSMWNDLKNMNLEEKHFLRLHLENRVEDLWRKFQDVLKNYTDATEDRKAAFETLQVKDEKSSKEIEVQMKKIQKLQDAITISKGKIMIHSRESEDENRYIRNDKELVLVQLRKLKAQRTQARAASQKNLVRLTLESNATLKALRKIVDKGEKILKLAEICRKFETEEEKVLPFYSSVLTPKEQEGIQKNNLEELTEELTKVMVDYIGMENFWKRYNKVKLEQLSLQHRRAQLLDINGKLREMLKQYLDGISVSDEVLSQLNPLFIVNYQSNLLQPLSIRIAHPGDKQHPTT

[6] = molecular target: alpha-Enolase (ENO1), endogenous (human (endogenous in AGS / gastric cancer cells)) (UniProt P06733); assay: co-IP; endogenous proteins, cell lysate (GC cells); 1 mg protein with 5 ug primary antibody or IgG overnight at 4 °C; also with CCDC65 overexpression (Figure 6I) or si-CCDC65 (Figure 7E)
GST-CCDC65 (human) = molecular target: T5, GST-CCDC65 (human) (UniProt Q8IXS2); assay: pull-down; GST pull-down: total protein with His-ENO1 or His-FBXW7 incubated with GST-CCDC65 or GST-control at 4 °C overnight, then glutathione-sepharose beads 2 h; Western blot; only the target purified
T5 sequence: T1 sequence

Myc-ENO1-1-138 (human) = Myc-ENO1-1-138 (human) (UniProt P06733); assay: co-IP; exogenous: tagged proteins transfected (HEK293T in Figures 5E, 5F, 7D); IP with anti-Flag or anti-Myc, Western blot
Myc-ENO1-140-434 (human) = Myc-ENO1-140-434 (human) (UniProt P06733); assay: as above

**Q.** Which binding [1] does the source give for “alpha-Enolase (ENO1), endogenous (from UniProt P06733 1-434)” here?
**A.** The binding was “binds”.

**Q.** How did the binding [2] turn out when “full-length HA-AKT1 (from UniProt P31749 1-480)” was run?
**A.** Its binding is “binds”.

**Q.** Which binding [3] does the source give for “Myc-ENO1, full length (from UniProt P06733 1-434)” here?
**A.** Its binding is “no binding”.

**Q.** What about the binding [4] of the same molecule?
**A.** The binding was “binds”.

**Q.** What about the binding [5] of the same molecule?
**A.** Its binding is “binds”.

**Q.** How did the binding [1] turn out when “RAC-Alpha Serine/Threonine-Protein Kinase (AKT1), endogenous (from UniProt P31749 1-480)” was run?
**A.** The binding was “no binding”.

**Q.** What about the binding [6] of the same molecule?
**A.** The binding was “binds”.

**Q.** Which results are given for “F-Box and WD Repeat Domain Containing 7 (FBXW7), endogenous (from UniProt Q969H0 1-707)”?
**A.** binding [1]: binds; binding [6]: binds

**Q.** How did the binding (GST-CCDC65 (human)) turn out when His-ENO1 (from UniProt P06733 1-434) was run?
**A.** Its binding is “binds”.

**Q.** With His-FBXW7 (from UniProt Q969H0 1-707) as the molecule, how does the binding (GST-CCDC65 (human)) read?
**A.** The binding was “binds”.

B1: wild type (WT) CCDC65, exogenous full length (protein, UniProt Q8IXS2 1-484)
chain: T1 sequence
**Q.** How did the binding (Myc-ENO1-1-138 (human)) turn out when B1 was run?
**A.** Its binding is “no binding”.

**Q.** What about the binding (Myc-ENO1-140-434 (human)) of the same molecule?
**A.** Its binding is “binds”.
